ChEMBL document CHEMBL5308541, “MAIP: An Open-Source Tool to Enrich High-Throughput Screening Output and Identify Novel, Druglike Molecules with Antimalarial Activity” (ACS Med Chem Lett, 2023)
Among all 150,000 compounds or so, about 540 (0.36%) showed an effect of 50% or more. Some of the results follow.

What follows are compounds tested on Plasmodium falciparum (assay: Primary screen in NF54 nanoGlo assay, in single point, at 2uM, 72h; a lower Z score goes with more inhibition). Details: timepoint 72 hour.
Type: functional, Erythrocyte

Which results are given for `O=C(O)c1ccc(-c2c(-c3ccccc3)ncn2CCc2c[nH]c(=O)[nH]c2=O)cc1`?
% Inhibition: -6%; Z score: 1.22

What does the source list for `COc1cc(OC)c2cc(C(=O)NCCN3C(C)CCCC3C)[nH]c2c1OC` (stereo unspecified)?
% Inhibition: 3%; Z score: -0.59

Which results are given for `OC1CN(C2CCC3(CCNCC3)CC2)CC1Cc1ccnc2ccccc12` (stereo unspecified)?
% Inhibition: -7%; Z score: 1.22

Which results are given for `O=C1NCCCC[C@@H]1Nc1ncnc2c1CCN(C1CCNCC1)CC2`?
% Inhibition: -5%; Z score: 0.95

With `FC(F)(F)Oc1cccc(N2CC[C@H](NC3CCOCC3)C2)c1` as the compound, how does the “% Inhibition” value read?
The value was -10%.

What about the Z score of the same compound?
Its Z score is 1.76.

With `CN1CCN(CC2(C)CCN(Cc3ccc4cn[nH]c4c3)CC2)CC1` as the compound, how does the “% Inhibition” value read?
The value was 9%.

What about the Z score of the same compound?
Its Z score is -1.62.

What does the source list for `O=C(CCc1c(-c2ccc(F)cc2)[nH]c2ccccc12)NCCNC(=O)c1ccn[nH]1`?
% Inhibition: -26%; Z score: 5.13

How did the “% Inhibition” value turn out when `Cc1nn(-c2nc3ccccc3s2)c(O)c1-c1cc(O)c2ccccc2n1` was run?
The value was -8%.

What about the Z score of the same compound?
The Z score was 1.49.

With `CC(C)OCCO[C@H]1CCOC2(CCN(Cc3ccc4cc[nH]c4c3)CC2)C1` as the compound, how does the “% Inhibition” value read?
Its value is 7%.

And the Z score?
The Z score was -1.16.

Which results are given for `O=C(Nc1cccc(-c2ccn[nH]2)c1)C1CCN(Cc2cccn2-c2ncccn2)CC1`?
% Inhibition: -5%; Z score: 0.95

With `CCc1noc(C2CCC3(CC2)NC(C)(C)C(=O)N3CC2CCCCC2)n1` (stereo unspecified) as the compound, how does the “% Inhibition” value read?
Its value is 4%.

And the Z score?
The Z score was -0.65.

With `COc1ccc2ccccc2c1CNC[C@H]1CCN(c2ccc(F)c(F)c2)C1` as the compound, how does the “% Inhibition” value read?
Its value is -3%.

What about the Z score of the same compound?
The Z score was 0.68.

What does the source list for `c1cc(-c2csc(CNc3ncnc4[nH]ncc34)n2)ccn1`?
% Inhibition: -7%; Z score: 1.59

What does the source list for `c1ccc(-c2nc(NCCNc3cnccn3)nc3ccccc23)cc1`?
% Inhibition: -1%; Z score: 0.1

`c1ncc(-c2ccnc(C3CCN(Cc4nc5c(s4)CNCC5)CC3)n2)cn1` was tested. Which “% Inhibition” value did it give?
The value was 6%.

What about the Z score of the same compound?
Its Z score is -0.89.

For `OC1CCCC(CNc2cc(NC3CCCOC3)ncn2)C1` (stereo unspecified), which “% Inhibition” value is on record?
The value was 9%.

What about the Z score of the same compound?
The Z score was -1.9.

Which “% Inhibition” value does the source give for `Cc1cc(Nc2ccc(NC3CCOCC3)cc2)nc(N)n1` here?
Its value is -2%.

And the Z score?
Its Z score is 0.34.

With `Cn1nccc1C1=CC2CCC(C1)N2C(=O)Nc1cnc(N2CCNCC2)nc1` (stereo unspecified) as the compound, how does the “% Inhibition” value read?
Its value is -4%.

And the Z score?
Its Z score is 0.75.

Which “% Inhibition” value does the source give for `O=C(c1ccc(-c2ncnc3ccsc23)cc1)N1CCCNCC1` here?
Its value is -9%.

And the Z score?
The Z score was 1.48.

`CCN=C(NCCOC)N[C@@H](C)c1ccc(F)cc1F` was tested. Which “% Inhibition” value did it give?
Its value is -6%.

What about the Z score of the same compound?
The Z score was 1.16.

Which results are given for `Cc1nc(C2CCNCC2)cc(N2CCCC[C@@H]2CCn2ccnc2C)n1`?
% Inhibition: -10%; Z score: 1.53

For `c1cc(-c2nc([C@@H]3CCCCCN3)no2)c2cn[nH]c2c1`, which “% Inhibition” value is on record?
Its value is -3%.

What about the Z score of the same compound?
The Z score was 0.56.

`Cc1noc(-c2cncnc2NCCCN2CCN(c3cc(Cl)ccc3C)CC2)n1` was tested. Which “% Inhibition” value did it give?
The value was 9%.

And the Z score?
The Z score was -1.73.

With `COCc1nc2cc(N[C@@H](C)C(=O)N3CCN(c4ncccn4)CC3)ccc2o1` as the compound, how does the “% Inhibition” value read?
Its value is -8%.

What about the Z score of the same compound?
The Z score was 1.69.

`C[C@@H](CCc1ccccc1)Nc1cc(N2CCN(C)CC2)nc(N)n1` was tested. Which “% Inhibition” value did it give?
The value was 13%.

What about the Z score of the same compound?
Its Z score is -2.64.

Which results are given for `c1ccc(-c2nc3c(c(NCc4ccc5c(c4)OCO5)n2)CCNCC3)nc1`?
% Inhibition: 8%; Z score: -1.64

How did the “% Inhibition” value turn out when `COc1ccc([C@H](CC(=O)NCc2cccc3[nH]ccc23)c2cc3c(cc2O)OCO3)cc1` was run?
Its value is -14%.

What about the Z score of the same compound?
The Z score was 2.35.

With `Cc1ccnc(O[C@H]2CCOC3(CCN(C(=O)CN4CCCCCC4)CC3)C2)c1` as the compound, how does the “% Inhibition” value read?
The value was -7%.

What about the Z score of the same compound?
The Z score was 1.24.

Which results are given for `CC(C)(C)OC(=O)N1CCN(C(C)(C)C(=O)NC2CCN(C(C)(C)C)CC2)CC1`?
% Inhibition: 2%; Z score: -0.37

What does the source list for `CCN1CCC[C@@H]1CN1CCN(c2cc(C)nc(C)c2)CC1`?
% Inhibition: 2%; Z score: -0.33

How did the “% Inhibition” value turn out when `CCOC(=O)c1[nH]ncc1CN(CCN1CCCCC1)C[C@H]1CCCN(C2CCCC2)C1` was run?
Its value is -4%.

And the Z score?
Its Z score is 0.62.

How did the “% Inhibition” value turn out when `COC[C@@H]1CCCN1C(=O)c1cccc(-c2ccc3c(cnn3C)c2)c1` was run?
The value was -7%.

And the Z score?
Its Z score is 1.6.

For `Cc1ccn(CC(=O)N2CCCC3OC(c4ccccc4)CC32)c(=O)c1` (stereo unspecified), which “% Inhibition” value is on record?
Its value is -13%.

And the Z score?
The Z score was 2.22.

For `CCc1nc2c(c(N3CCC(Oc4ccncc4)CC3)n1)CCNCC2`, which “% Inhibition” value is on record?
The value was 5%.

And the Z score?
The Z score was -0.92.

Which “% Inhibition” value does the source give for `Cc1ccc2ncccc2c1CN(C)C1CCOCC1` here?
The value was -11%.

And the Z score?
Its Z score is 1.89.

How did the “% Inhibition” value turn out when `O=C(c1cccc(-c2cncc(C(=O)N3CCCC3)n2)c1)N1CCCNCC1` was run?
Its value is 7%.

What about the Z score of the same compound?
Its Z score is -0.99.

For `CC(C)c1nc(NC[C@@H](c2cccnc2)N2CCCCC2)c2cnn(C)c2n1`, which “% Inhibition” value is on record?
Its value is 0%.

And the Z score?
The Z score was -0.03.

How did the “% Inhibition” value turn out when `CN(CC(=O)N1CCN(C2CCOCC2)CC1)C1CCNCC1` was run?
Its value is -2%.

And the Z score?
Its Z score is 0.39.

`CN1CCC[C@@H](CNc2cc(NCC3CC3)ncn2)[C@@H]1c1cncn1C` was tested. Which “% Inhibition” value did it give?
Its value is -3%.

And the Z score?
Its Z score is 0.57.

How did the “% Inhibition” value turn out when `O[C@@H](Cc1ccccc1)c1ccc2c(c1)CN(Cc1cccc3ncccc13)CCO2` was run?
The value was 17%.

What about the Z score of the same compound?
The Z score was -2.92.

With `N[C@H]1CC[C@@H](NC2CCN(c3ccc(F)c(F)c3)CC2)CC1` as the compound, how does the “% Inhibition” value read?
Its value is 53%.

And the Z score?
The Z score was -9.21.

`O=C(CC1CC2CCC1C2)NCCCOC1CCCCC1` (stereo unspecified) was tested. Which “% Inhibition” value did it give?
The value was 6%.

And the Z score?
The Z score was -1.22.

`Cc1ncn(C)c1C(=O)N1CC[C@](C(=O)O)(c2ccccc2)C1` was tested. Which “% Inhibition” value did it give?
Its value is -13%.

And the Z score?
Its Z score is 2.73.

Which “% Inhibition” value does the source give for `c1ccc(-c2noc([C@@H]3CCCN3c3ncnc4sccc34)n2)cc1` here?
The value was -1%.

What about the Z score of the same compound?
Its Z score is 0.09.

For `CN(CCCNc1nccc2ncncc12)CC(F)(F)F`, which “% Inhibition” value is on record?
The value was -2%.

And the Z score?
Its Z score is 0.32.

Which “% Inhibition” value does the source give for `O[C@@H]1CC(c2nnc[nH]2)C[C@@H]1CNCc1cccc(-c2ccccn2)c1` (stereo partly specified) here?
The value was 2%.

And the Z score?
The Z score was -0.37.

`OC1CNCCC1Nc1ncnc2[nH]ccc12` (stereo unspecified) was tested. Which “% Inhibition” value did it give?
Its value is -5%.

What about the Z score of the same compound?
The Z score was 1.01.

For `Cc1nn(CCCNC(=O)C[C@H]2CNCCO2)c(C)c1C`, which “% Inhibition” value is on record?
Its value is -2%.

What about the Z score of the same compound?
The Z score was 0.35.

`O=c1[nH]c(NCCCNc2cccnc2)nc2c1CCNC2` was tested. Which “% Inhibition” value did it give?
The value was -11%.

What about the Z score of the same compound?
The Z score was 2.19.

`CN(C)c1nccc([C@@H]2CN(c3cc(NC4CC4)ncn3)CCO2)n1` was tested. Which “% Inhibition” value did it give?
Its value is 9%.

What about the Z score of the same compound?
Its Z score is -1.83.

What does the source list for `OC1CN(c2ccnc3ccccc23)CCC1N1CCN(c2ccccn2)CC1` (stereo unspecified)?
% Inhibition: -7%; Z score: 1.2

Which results are given for `CCOc1ccc(CN2CCN(c3nc(C)cc(NC)n3)C[C@@H]2CCO)cc1`?
% Inhibition: -5%; Z score: 0.82

With `CO[C@H]1C[C@@H](CN2CCCC2)N(C(=O)Nc2ccc3cc[nH]c(=O)c3c2)C1` as the compound, how does the “% Inhibition” value read?
The value was 2%.

And the Z score?
Its Z score is -0.32.
